# Data taken from the supplement of paper PMC8728848.
# Some of the results follow.
# Tests used:
# Assay in all cases: glycan array binding signal (z-score within array); higher = stronger binding
# Details in all cases: glycan notation: IUPAC condensed, linker removed
# [1] = target: GlcNAc(b1-3)Gal(b1-4)GlcNAc(b1-3)Gal(b1-4)GlcNAc(b1-3)Gal(b1-4)GlcNAc(b1-3)Gal(b1-4)GlcNAc(b1-2)[GlcNAc(b1-3)Gal(b1-4)GlcNAc(b1-3)Gal(b1-4)GlcNAc(b1-3)Gal(b1-4)GlcNAc(b1-3)Gal(b1-4)GlcNAc(b1-6)]Man(a1-6)[GlcNAc(b1-3)Gal(b1-4)GlcNAc(b1-3)Gal(b1-4)GlcNAc(b1-3)Gal(b1-4)GlcNAc(b1-3)Gal(b1-4)GlcNAc(b1-2)Man(a1-3)]Man(b1-4)GlcNAc(b1-4)[Fuc(a1-6)]GlcNAc
# In short: (§1)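 Columns mapping to the same glycan were averaged after glycan names were converted to IUPAC-condensed notation. The data come from 3228 arrays in the Consortium for Functional Glycomics database, limited to those with an available protein sequence. Binding is reported as a within-array Z-score averaged across arrays of one protein sequence and across linkers.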
# [2] = target: GlcNAc(b1-3)Gal(b1-4)GlcNAc(b1-3)Gal(b1-4)GlcNAc(b1-3)GalNAc
# In short: as §1
# [3] = target: GlcNAc(b1-3)Gal(b1-4)GlcNAc(b1-3)GalNAc
# In short: as §1
# [4] = target: GlcNAc(b1-3)Gal(b1-4)GlcNAc(b1-3)[GlcNAc(b1-3)Gal(b1-4)GlcNAc(b1-3)]GalNAc
# In short: as §1
# [5] = target: GlcNAc(b1-3)Gal(b1-4)GlcNAc(b1-6)[Gal(b1-3)]GalNAc
# In short: as §1
# [6] = target: GlcNAc(b1-3)Gal(b1-4)GlcNAc(b1-6)[GlcNAc(b1-3)Gal(b1-3)]GalNAc
# In short: as §1
# [7] = target: GlcNAc(b1-3)Gal(b1-4)GlcNAc(b1-6)[GlcNAc(b1-3)]Gal(b1-4)GlcNAc
# In short: as §1
# [8] = target: GlcNAc(b1-3)GalNAc
# In short: as §1
# [9] = target: GlcNAc(b1-3)Man
# In short: as §1
# [10] = target: GlcNAc(b1-3)[GlcNAc(b1-4)][GlcNAc(b1-6)]GlcNAc
# In short: as §1
# [11] = target: GlcNAc(b1-3)[GlcNAc(b1-6)]Gal(b1-4)GlcNAc
# In short: as §1
# [12] = target: GlcNAc(b1-3)[GlcNAc(b1-6)]GalNAc
# In short: as §1
# [13] = target: GlcNAc(b1-4)Gal(b1-4)GlcNAc
# In short: as §1
# [14] = target: GlcNAc(b1-4)GlcNAc
# In short: as §1
# [15] = target: GlcNAc(b1-4)GlcNAc(b1-4)GlcNAc
# In short: as §1
# [16] = target: GlcNAc(b1-4)GlcNAc(b1-4)GlcNAc(b1-4)GlcNAc(b1-4)GlcNAc
# In short: as §1
# [17] = target: GlcNAc(b1-4)GlcNAc(b1-4)GlcNAc(b1-4)GlcNAc(b1-4)GlcNAc(b1-4)GlcNAc
# In short: as §1
# [18] = target: GlcNAc(b1-4)[GlcNAc(b1-6)]GalNAc
# In short: as §1
# [19] = target: GlcNAc(b1-6)Gal(b1-4)GlcNAc
# In short: as §1
# [20] = target: GlcNAc(b1-6)GalNAc
# In short: as §1
# [21] = target: GlcNAc6S(b1-3)Gal(b1-4)GlcNAc
# In short: as §1
# [22] = target: Kdn(a2-3)Gal(b1-3)GalNAc
# In short: as §1
# [23] = target: Kdn(a2-3)Gal(b1-3)GlcNAc
# In short: as §1
# [24] = target: Kdn(a2-3)Gal(b1-4)Glc
# In short: as §1
# [25] = target: Kdn(a2-3)Gal(b1-4)GlcNAc
# In short: as §1
# [26] = target: Kdn(a2-3)Gal(b1-4)[Fuc(a1-3)]GlcNAc
# In short: as §1
# [27] = target: Kdn(a2-6)Gal(b1-4)GlcNAc
# In short: as §1
# [28] = target: Man(a1-2)Man(a1-2)Man(a1-3)Man
# In short: as §1
# [29] = target: Man(a1-2)Man(a1-2)Man(a1-6)[Man(a1-3)]Man
# In short: as §1
# [30] = target: Man(a1-2)Man(a1-3)Man
# In short: as §1
# [31] = target: Man(a1-2)Man(a1-3)[Man(a1-2)Man(a1-6)]Man
# In short: as §1
# [32] = target: Man(a1-2)Man(a1-3)[Man(a1-2)Man(a1-6)]Man(a1-6)[Man(a1-2)Man(a1-2)Man(a1-3)]Man
# In short: as §1
# [33] = target: Man(a1-2)Man(a1-3)[Man(a1-2)Man(a1-6)]Man(a1-6)[Man(a1-2)Man(a1-2)Man(a1-3)]Man(b1-4)GlcNAc(b1-4)GlcNAc
# In short: as §1
# [34] = target: Man(a1-2)Man(a1-3)[Man(a1-6)]Man(a1-6)[Man(a1-2)Man(a1-3)]Man(b1-4)GlcNAc(b1-4)GlcNAc
# In short: as §1
# [35] = target: Man(a1-2)Man(a1-6)[Man(a1-3)]Man(a1-6)[Man(a1-2)Man(a1-2)Man(a1-3)]Man
# In short: as §1
# [36] = target: Man(a1-2)Man(a1-6)[Man(a1-3)]Man(a1-6)[Man(a1-2)Man(a1-2)Man(a1-3)]Man(b1-4)GlcNAc(b1-4)GlcNAc
# In short: as §1
# [37] = target: Man(a1-3)[Man(a1-6)]Man
# In short: as §1
binder,measurement,setting,value
Als3-41 (Candida albicans) (protein) KTITGVFNSFNSLTWSNAATYNYKGPGTPTWNAVLGWSLDGTSASPGDTFTLNMPCVFKFTTSQTSVDLTAHGVKYATCQFQAGEEFMTFSTLTCTVSNTLTPSIKALGTVTLPLAFNVGGTGSSVDLEDSKCFTAGTNTVTFNDGGKKISINVDFERSNVDPKGYLTDSRVIPSLNKVSTLFVAPQCANGYTSGTMGFANTYGDVQIDCSNIHVGITKGLNDWNYPVSSESFSYTKTCSSNGIFITYKNVPAGYRPFVDAYISATDVNSYTLSYANEYTCAGGYWQRAPFTLRWTGYRNSDAGSNGIVIVATTRTVTDSTTAVTTLPFDPNRDKTKTIEILKPIPTTTITTSYVGVTTSYLTKTAPIGETATVIVD,glycan array binding signal (z-score),[1],-0.052
same,glycan array binding signal (z-score),[2],-0.155
same,glycan array binding signal (z-score),[3],-0.241
same,glycan array binding signal (z-score),[4],0.496
same,glycan array binding signal (z-score),[5],0.144
same,glycan array binding signal (z-score),[6],-0.068
same,glycan array binding signal (z-score),[7],0.202
same,glycan array binding signal (z-score),[8],-0.301
same,glycan array binding signal (z-score),[9],0.501
same,glycan array binding signal (z-score),[10],-0.146
same,glycan array binding signal (z-score),[11],-0.312
same,glycan array binding signal (z-score),[12],-0.287
same,glycan array binding signal (z-score),[13],-0.278
same,glycan array binding signal (z-score),[14],1.79
same,glycan array binding signal (z-score),[15],-0.322
same,glycan array binding signal (z-score),[16],-0.09
same,glycan array binding signal (z-score),[17],-0.256
same,glycan array binding signal (z-score),[18],-0.059
same,glycan array binding signal (z-score),[19],-0.132
same,glycan array binding signal (z-score),[20],-0.189
same,glycan array binding signal (z-score),[21],-0.039
same,glycan array binding signal (z-score),[22],0.948
same,glycan array binding signal (z-score),[23],-0.191
same,glycan array binding signal (z-score),[24],-0.048
same,glycan array binding signal (z-score),[25],-0.355
same,glycan array binding signal (z-score),[26],0.132
same,glycan array binding signal (z-score),[27],0.735
same,glycan array binding signal (z-score),[28],-0.082
same,glycan array binding signal (z-score),[29],-0.275
same,glycan array binding signal (z-score),[30],-0.299
same,glycan array binding signal (z-score),[31],-0.261
same,glycan array binding signal (z-score),[32],-0.353
same,glycan array binding signal (z-score),[33],-0.168
same,glycan array binding signal (z-score),[34],0.006
same,glycan array binding signal (z-score),[35],-0.295
same,glycan array binding signal (z-score),[36],-0.239
same,glycan array binding signal (z-score),[37],-0.189
